# Experimental data reported in the supplement of paper PMC4967469.
# By IC50 is meant the dose at which the fit gives 50% viability; fits outside the tested doses are given as limits. AUC is the area under the same curve over the 256-fold range up to the top dose, as a fraction: 1 means no effect, lower means more sensitive. A top dose marked as inferred was calculated from the reported fits.
# Experiments:
# Assay in all cases: Viability of human cancer cell lines after 72 h of drug (GDSC screen)
# [1] = compound: COc1cc(N2CCN(C)CC2)ccc1Nc1nc(N)c(C(=O)c2c(Cl)cccc2Cl)s1 [XMD14-99]; conditions: top dose 10.24 µM; top dose inferred
# Description: (§1)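 Human cancer cell lines in 384-well plates, medium with 10% serum, drug for 72 h over a 256-fold dose range (nine 2-fold or five 4-fold steps up to the top dose). Adherent lines were fixed and stained with the nucleic acid dye Syto60, suspension lines read with resazurin; signal relative to control wells, capped at 0 and 100%. One two-parameter sigmoid per drug and line, fitted in a mixed model over all curves with the slope shared within a line.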
# [2] = compound: Cc1cc([N+](=O)[O-])ccc1NS(=O)(=O)c1cc(Cl)ccc1Cl [FH535]; conditions: top dose 32 µM; top dose inferred
# Description: as §1
# [3] = compound: Cc1n[nH]c2ccc(-c3cncc(OC[C@@H](N)Cc4c[nH]c5ccccc45)c3)cc12 [A-443654]; conditions: top dose 1.024 µM; top dose inferred
# Description: as §1
# [4] = compound: O=C(NC1CCNCC1)c1n[nH]cc1NC(=O)c1c(Cl)cccc1Cl [AT-7519]; conditions: top dose 10.24 µM; top dose inferred
# Description: as §1
Cell Line,AUC [1],IC50 [1] [µM],AUC [2],IC50 [2] [µM],AUC [3],IC50 [3] [µM],AUC [4],IC50 [4] [µM]
"CAL-148 (breast, suspension)",0.989,> 10.2,0.731,8.57,0.486,0.0587,0.922,> 10.2
"DEL (lymphoid neoplasm, suspension)",0.692,1.94,0.716,6.99,0.714,0.22,0.288,0.188
"DG-75 (Burkitt lymphoma, suspension)",0.985,> 10.2,0.896,> 32,0.832,0.663,0.434,0.422
"DU-4475 (breast, suspension)",0.912,10,0.7,6.45,0.768,0.317,0.373,0.307
"GAK (melanoma, adherent)",0.989,> 10.2,0.484,1.82,0.926,> 1.02,0.985,> 10.2
"HEL (acute myeloid leukaemia, semi-adherent)",0.932,> 10.2,0.672,5.47,0.809,0.428,0.915,> 10.2
"HL-60 (acute myeloid leukaemia, suspension)",0.978,> 10.2,0.617,4.05,0.829,0.548,0.493,0.613
"K-562 (chronic myeloid leukaemia, suspension)",0.968,> 10.2,,,0.791,0.445,,
"KASUMI-1 (acute myeloid leukaemia, suspension)",0.894,> 10.2,,,0.966,> 1.02,0.352,0.248
"KM12 (large intestine, adherent)",0.959,> 10.2,0.669,6.19,0.677,0.209,0.853,9.09
"KU812 (chronic myeloid leukaemia, suspension)",0.949,> 10.2,0.735,8.71,0.567,,0.205,0.0952
"MV-4-11 (leukaemia, suspension)",0.882,7.51,0.668,5.34,0.459,0.0505,,
"NCI-H23 (lung adenocarcinoma, adherent)",0.988,> 10.2,0.896,> 32,0.825,0.603,0.739,3.06
"OS-RC-2 (kidney, adherent)",0.969,> 10.2,0.668,7.28,0.66,0.217,0.769,5.71
"RKO (large intestine, adherent)",0.977,> 10.2,0.518,,0.64,0.152,0.418,0.389
"SCH (stomach, adherent)",0.985,> 10.2,0.786,15,0.898,> 1.02,0.87,> 10.2
"SF268 (glioma, adherent)",0.975,> 10.2,0.668,6.1,0.782,0.464,0.448,0.458
"SNU-C2B (large intestine, adherent)",0.978,> 10.2,0.612,4.49,0.67,0.223,0.52,0.74
"SU-DHL-1 (anaplastic large cell lymphoma, suspension)",0.82,3.9,0.964,> 32,0.803,0.351,0.328,0.245
"SW626 (ovary, adherent)",0.962,> 10.2,0.575,3.33,,,0.599,1.26
"SW756 (cervix, adherent)",0.983,> 10.2,0.585,3.58,,,0.984,> 10.2
"SW780 (bladder, adherent)",0.986,> 10.2,0.635,4.88,,,0.948,> 10.2
"SW837 (large intestine, adherent)",0.983,> 10.2,0.596,,,,0.79,6.25
"SW900 (lung squamous cell carcinoma, adherent)",0.985,> 10.2,0.807,19.6,,,0.829,7.84
"SW948 (large intestine, adherent)",0.982,> 10.2,0.725,11.9,,,0.958,> 10.2

Cell Line,AUC [1],IC50 [1] [µM],AUC [2],IC50 [2] [µM],AUC [3],IC50 [3] [µM],AUC [4],IC50 [4] [µM]
"SW1088 (glioma, adherent)",0.981,> 10.2,0.717,10,,,0.938,> 10.2
"SW1271 (small cell lung carcinoma, adherent)",0.965,> 10.2,0.595,3.78,,,0.883,> 10.2
"SW1417 (large intestine, adherent)",0.982,> 10.2,0.76,13.1,,,0.954,> 10.2
"SW1463 (large intestine, adherent)",0.974,> 10.2,0.589,4.16,,,0.944,> 10.2
"SW1573 (lung adenocarcinoma, adherent)",0.981,> 10.2,0.664,6.75,,,0.877,> 10.2
"SW1710 (bladder, adherent)",0.976,> 10.2,0.558,2.9,,,0.856,8.69
"SW1783 (glioma, adherent)",0.99,> 10.2,0.666,5.5,,,0.972,> 10.2
"SW1990 (pancreas, adherent)",0.981,> 10.2,0.654,5.77,,,0.881,> 10.2
"Saos-2 (osteosarcoma, adherent)",0.98,> 10.2,0.658,6.67,,,0.966,> 10.2
"SiHa (cervix, adherent)",0.986,> 10.2,0.763,13.3,,,0.911,> 10.2
"T47D (breast, adherent)",0.962,> 10.2,0.78,21.4,,,0.793,7.84
"T84 (large intestine, adherent)",0.97,> 10.2,0.655,5.43,,,0.949,> 10.2
"T98G (glioma, adherent)",0.987,> 10.2,0.721,8.01,,,0.889,10.2
"T-24 (bladder, adherent)",0.984,> 10.2,0.91,> 32,,,0.807,4.98
"T-T (oesophagus, adherent)",0.972,> 10.2,0.56,2.91,,,0.867,9.16
"TCCSUP (bladder, adherent)",0.985,> 10.2,0.62,4.5,,,0.973,> 10.2
"TGBC11TKB (stomach, adherent)",0.963,> 10.2,0.876,25.4,,,0.726,2.56
"THP-1 (acute myeloid leukaemia, suspension)",0.908,> 10.2,0.827,16.9,0.969,> 1.02,,
"TK (B-cell lymphoma, suspension)",0.985,> 10.2,0.707,7.23,,,0.846,6.49
"TMK-1 (stomach, adherent)",0.98,> 10.2,0.496,1.95,,,0.695,2.35
"TOV-21G (ovary, adherent)",0.958,> 10.2,0.98,> 32,,,0.457,0.485
"TOV-112D (ovary, adherent)",0.959,> 10.2,0.507,2.09,,,0.443,0.446
"TT2609-C02 (thyroid, adherent)",0.976,> 10.2,0.562,2.99,,,0.67,1.97
"TT (thyroid, adherent)",0.982,> 10.2,0.744,13.4,,,0.848,> 10.2
"TYK-nu (ovary, adherent)",0.985,> 10.2,0.479,1.74,,,0.931,> 10.2

Cell Line,AUC [1],IC50 [1] [µM],AUC [2],IC50 [2] [µM],AUC [3],IC50 [3] [µM],AUC [4],IC50 [4] [µM]
"U031 (kidney, adherent)",0.972,> 10.2,0.689,6.92,,,0.696,2.33
"U251 (glioma, adherent)",0.98,> 10.2,0.528,2.38,,,0.461,0.504
"U-2-OS (osteosarcoma, adherent)",0.975,> 10.2,0.934,> 32,,,0.983,> 10.2
"U-87-MG (glioma, adherent)",0.978,> 10.2,0.832,25.5,0.976,> 1.02,0.834,8.35
"U-118-MG (glioma, adherent)",0.984,> 10.2,0.858,> 32,,,0.985,> 10.2
"UACC-62 (melanoma, adherent)",0.984,> 10.2,0.225,0.321,,,0.949,> 10.2
"UACC-812 (breast, adherent)",0.991,> 10.2,0.873,29.1,,,0.931,> 10.2
"UACC-893 (breast, adherent)",0.979,> 10.2,0.525,2.39,,,0.763,4.93
"UM-UC-3 (bladder, adherent)",0.976,> 10.2,0.472,1.68,,,0.864,8.03
"UMC-11 (lung carcinoid, adherent)",0.965,> 10.2,0.449,1.48,,,0.799,4.3
"VAL (B-cell lymphoma, suspension)",0.922,> 10.2,0.656,5.41,,,0.464,0.51
"VM-CUB-1 (bladder, adherent)",0.987,> 10.2,0.683,6.35,,,0.963,> 10.2
"VMRC-MELG (melanoma, adherent)",0.98,> 10.2,0.861,29.3,,,0.908,> 10.2
"VMRC-RCW (kidney, adherent)",0.983,> 10.2,0.476,1.73,,,0.942,> 10.2
"VMRC-RCZ (kidney, adherent)",0.977,> 10.2,0.701,8.15,,,0.744,3.65
"WM35 (melanoma, adherent)",0.974,> 10.2,0.565,3.02,,,0.685,2.11
"WM278 (melanoma, adherent)",0.981,> 10.2,0.627,4.7,,,0.761,4.06
"WM793B (melanoma, adherent)",0.971,> 10.2,0.705,8.08,,,0.498,0.633
"WM1552C (melanoma, adherent)",0.977,> 10.2,0.678,6.33,,,0.684,2.1
"WM-115 (melanoma, adherent)",0.962,> 10.2,0.966,> 32,,,0.641,1.72
"YAPC (pancreas, adherent)",0.984,> 10.2,0.845,> 32,,,0.735,3.59
"YKG-1 (glioma, adherent)",0.978,> 10.2,0.596,3.68,,,0.686,2.14
"huH-1 (liver, adherent)",0.974,> 10.2,0.522,2.33,,,0.976,> 10.2
